Several values for one entry are separate records, joined by “and”; a condition that tells them apart may be missing. Equal values may be shown once. About 5,700 (2.6%) of roughly 220,000 compounds were called active. The shares of active, inactive and inconclusive entries below differ from those in the screen. Calls follow the shape of the dose curve; as a rule, active = well fitted inhibition curve with a large enough effect; inconclusive = small, poorly fitted or top-dose-only effect; inactive = no such curve, though single readings can be large or run the other way. Potencies beside an inconclusive call are fits to weak or partial responses and may not hold up.
What follows are molecules tested against Lysine-specific demethylase 5B (Homo sapiens) (UniProt Q9UGL1) (assay: Primary screen for KDM5B Histone Demethylases FDH-coupled qHTS). Details: FDH-coupled NADH fluorescence (FDH is formaldehyde dehydrogenase); series mostly up to 57.7 µM.
Sequence of UniProt Q9UGL1 (Q9UGL1 whole entry, looked up): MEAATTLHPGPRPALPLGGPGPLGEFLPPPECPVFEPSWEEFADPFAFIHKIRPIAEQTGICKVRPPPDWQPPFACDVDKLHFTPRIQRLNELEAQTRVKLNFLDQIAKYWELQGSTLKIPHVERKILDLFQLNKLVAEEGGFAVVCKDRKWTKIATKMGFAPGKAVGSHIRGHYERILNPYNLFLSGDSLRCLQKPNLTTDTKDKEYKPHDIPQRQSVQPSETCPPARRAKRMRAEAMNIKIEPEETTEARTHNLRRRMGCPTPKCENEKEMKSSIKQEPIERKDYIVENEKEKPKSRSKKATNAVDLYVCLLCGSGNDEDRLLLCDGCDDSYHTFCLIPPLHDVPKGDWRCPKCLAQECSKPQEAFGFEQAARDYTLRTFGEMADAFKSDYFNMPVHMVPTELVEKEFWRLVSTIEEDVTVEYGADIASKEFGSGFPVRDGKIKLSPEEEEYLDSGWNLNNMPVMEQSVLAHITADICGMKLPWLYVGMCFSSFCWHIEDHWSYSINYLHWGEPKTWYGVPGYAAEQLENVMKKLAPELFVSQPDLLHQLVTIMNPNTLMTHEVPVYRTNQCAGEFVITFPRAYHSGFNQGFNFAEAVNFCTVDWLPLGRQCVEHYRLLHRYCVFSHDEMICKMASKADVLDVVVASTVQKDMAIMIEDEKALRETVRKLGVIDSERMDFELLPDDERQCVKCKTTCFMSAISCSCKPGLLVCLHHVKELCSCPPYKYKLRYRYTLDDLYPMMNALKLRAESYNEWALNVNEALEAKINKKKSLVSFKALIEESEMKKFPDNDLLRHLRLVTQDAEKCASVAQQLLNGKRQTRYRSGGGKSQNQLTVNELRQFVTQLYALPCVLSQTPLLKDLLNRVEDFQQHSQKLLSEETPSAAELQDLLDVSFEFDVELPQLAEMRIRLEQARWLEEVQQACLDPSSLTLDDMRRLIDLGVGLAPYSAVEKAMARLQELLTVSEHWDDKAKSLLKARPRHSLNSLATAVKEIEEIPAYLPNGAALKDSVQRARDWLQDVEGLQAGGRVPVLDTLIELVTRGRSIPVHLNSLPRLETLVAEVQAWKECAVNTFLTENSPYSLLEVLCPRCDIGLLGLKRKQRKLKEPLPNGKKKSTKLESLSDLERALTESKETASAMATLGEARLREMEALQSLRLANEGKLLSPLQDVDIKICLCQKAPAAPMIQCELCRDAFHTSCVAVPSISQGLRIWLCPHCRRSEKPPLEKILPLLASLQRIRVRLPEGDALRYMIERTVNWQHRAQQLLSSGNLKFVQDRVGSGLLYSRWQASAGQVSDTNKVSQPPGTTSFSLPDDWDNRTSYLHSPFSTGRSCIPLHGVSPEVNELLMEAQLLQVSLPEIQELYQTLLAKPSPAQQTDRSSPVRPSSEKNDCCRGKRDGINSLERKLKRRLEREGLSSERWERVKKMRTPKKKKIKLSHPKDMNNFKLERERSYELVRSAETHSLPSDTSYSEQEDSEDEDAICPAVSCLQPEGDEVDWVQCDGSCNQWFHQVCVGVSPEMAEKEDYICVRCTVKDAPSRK
Procedure, shortened: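 qHTS format, multiple compound concentrations. Buffer 50 mM HEPES pH 7.5/0.01% Tween-20; 200 nM KDM5BΔAP final; 10 min compound preincubation; substrate-mix levels 12.5 µM peptide, 25 µM α-KG, 0.25 mM NAD⁺; 30 min RT; ΔRFU.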
In the case of `COc1ccc(OC)c(NC(=O)CN2C(=O)CC(c3ccco3)Sc3ccccc32)c1` (configuration not stated), the Potency is reported as inconclusive: 35.5 µM [inhibitor, single point]. `O=c1cc(-c2cccs2)oc2ccccc12` was tested, and the Potency was inconclusive: 28.2 µM [inhibitor, partial curve, poor fit]. `COc1ccc2c(c1)c1c(c(=O)n(-c3ccccc3C)c(=O)n1Cc1ccccc1C)n2C` was tested, and the Potency was inconclusive: 14.1 µM [inhibitor, partial curve, poor fit]. In the case of `C1=CC[C@H]2CN(c3nccc(-c4ccccn4)n3)C[C@H]2C1`, the Potency is reported as inconclusive: 25.1 µM [inhibitor, single point]. In the case of `CC1CCN(c2oc(/C=C/c3cccs3)nc2C#N)CC1`, the Potency is reported as inconclusive: 28.2 µM [inhibitor, single point]. `Cc1oc(-c2cccs2)nc1CN1CCOC(Cc2ccccc2)C1` (configuration not stated) was tested, and the Potency was inconclusive: 10 µM [inhibitor, partial curve]. With `O=C(N/N=C/C(Cl)=C\c1ccccc1)C1CC1` the Potency was “inactive”. For `CN1CCOc2c(C(=O)NCCC(N)=O)cc(-c3ccccc3F)cc21`, the Potency was active: 31.6 µM. With `Cc1cccc(N2CCN(C(=O)c3ccc4c(c3)N(C)C3CCCCN3C4=O)CC2)c1` (configuration not stated) the Potency was inconclusive: 22.4 µM [inhibitor, single point]. In the case of `COc1ccc(NC(=O)COC(=O)c2ccc(C)s2)cc1OC`, the Potency is reported as “inactive”. `COc1cccc(C(=O)N2CCCN(c3cc(-c4ccc(Cl)cc4)[nH]n3)CC2)c1` was tested, and the Potency was inconclusive: 11.2 µM [inhibitor, partial curve]. `Cc1cc(Nc2cccc(Cl)c2)nc2ccc(NC(=O)CCC3CCCC3)cc12` was tested, and the Potency was inconclusive: 14.1 µM [inhibitor, partial curve, poor fit]. In the case of `O=C1CCSc2ccc(C(=O)NNC(=S)NCc3ccccc3)cc2N1`, the Potency is reported as inconclusive: 39.8 µM [inhibitor, single point]. In the case of `CCOCCCNC(=O)c1cnc2sc(N3CCCCCC3)nn2c1=O`, the Potency is reported as inconclusive: 28.2 µM [inhibitor, partial curve, poor fit]. In the case of `O=C(Nc1nc2ccsc2c(=O)s1)c1ccco1`, the Potency is reported as inconclusive: 25.1 µM [inhibitor, single point]. With `Cc1ccc(CC(=O)N(Cc2nc(-c3ccc(C)cc3)no2)C(C)C)cc1` the Potency was inconclusive: 1.41 µM [inhibitor, partial curve, poor fit]. In the case of `Cc1ccc2nc(N3CCNCC3)c(-n3nc(C)cc3C)nc2c1`, the Potency is reported as inconclusive: 22.4 µM [inhibitor, partial curve, poor fit]. In the case of `Cc1nn(-c2ccccc2)c(OC(=O)c2ccc(Br)cc2)c1S(=O)(=O)c1ccccc1`, the Potency is reported as inconclusive: 17.8 µM [inhibitor, partial curve, poor fit]. In the case of `O=C(NC1CCCCC1)c1ccc(Cn2c(SCc3cccc(F)c3)nc3cccnc32)cc1`, the Potency is reported as inconclusive: 39.8 µM [inhibitor, partial curve, poor fit]. In the case of `CCc1ccc(C(=O)Nc2ccc(N(C)C)cc2)cc1`, the Potency is reported as “inactive”. `CC(C)CN1C(=O)c2cccn2CC1C(=O)N(C)Cc1cccnc1` (configuration not stated) was tested, and the Potency was inconclusive: 25.1 µM [inhibitor, single point]. With `COc1ccc(C(=O)Nc2ccc(NC(=O)C34CC5CC(CC(C5)C3)C4)cc2)cc1` the Potency was “inactive”. In the case of `Cc1cccc(C(=O)Nc2ccc(-c3nc4ccccc4s3)c(C)c2)c1`, the Potency is reported as inconclusive: 28.2 µM [inhibitor, partial curve, poor fit] and inconclusive: 25.1 µM [inhibitor, partial curve, poor fit]. In the case of `COc1cc(C)c2c(c1C)C[C@H]([C@H](C)C(=O)NC1CCCC1)CC2`, the Potency is reported as inconclusive: 31.6 µM [inhibitor, single point]. For `COc1ccc(N2CCN(CC(O)COc3ccccc3C(C)(C)C)CC2)cc1` (configuration not stated), the Potency was inconclusive: 28.2 µM [inhibitor, partial curve, poor fit]. For `Cn1nc(C(=O)N2CCN(c3ccc(F)cc3)CC2)c2ccccc2c1=O`, the Potency was inconclusive: 25.1 µM [inhibitor, partial curve, poor fit]. With `Cc1nc2ccc(C(=O)OC(C)C(=O)NC3CCCCCC3)cc2nc1C` (configuration not stated) the Potency was “inactive”. With `O=C1CCC[C@@H]2C3CC(CN(C4CCN(C(=O)C5(c6ccccc6)CC5)CC4)C3)CN12` (some centres not stated) the Potency was inconclusive: 14.1 µM [inhibitor, partial curve]. In the case of `O=C(NCc1nnc2ccc(-c3ccccc3)nn12)c1ccccc1F`, the Potency is reported as active: 28.2 µM. `CC(C)NC(=O)CC[C@@H]1CNC(=O)[C@@H]2C[C@H](NCc3ccccc3)CN12` was tested, and the Potency was inconclusive: 35.5 µM [inhibitor, partial curve, poor fit]. In the case of `CCOc1ncccc1C(=O)Nc1cccc(-c2nc3cccnc3s2)c1`, the Potency is reported as inconclusive: 39.8 µM [inhibitor, partial curve, poor fit]. For `CCOc1ccc2c(c1)c(=O)c(S(=O)(=O)c1ccc(C)cc1)cn2CC(=O)Nc1ccc(C)cc1`, the Potency was inconclusive: 28.2 µM [inhibitor, partial curve, poor fit]. In the case of `CCn1c(=O)c2cc(C(=O)NCCc3cccc(C)c3)sc2c2ccccc21`, the Potency is reported as inconclusive: 25.1 µM [inhibitor, partial curve, poor fit]. `COCCCN1CCc2nc(SCC(=O)Nc3ccc(C)c(Cl)c3)[nH]c(=O)c2C1` was tested, and the Potency was inconclusive: 12.6 µM [inhibitor, partial curve, poor fit]. In the case of `CN1C[C@H](C(=O)Nc2ccccc2)C[C@H]1c1cccc(C(F)(F)F)c1`, the Potency is reported as “inactive”. For `Cc1ccc(-c2c(CN3CCN(c4cc(Cl)ccc4C)CC3)csc2C)cc1`, the Potency was inconclusive: 28.2 µM [inhibitor, single point]. With `Cc1cc2ccccc2[nH]1` the Potency was “inactive”. With `COc1ccc(C(C)NC(=O)c2ccc(Cn3ccn4nc5c(c4c3=O)CCCC5)cc2)cc1OC` (configuration not stated) the Potency was inconclusive: 28.2 µM [inhibitor, single point]. In the case of `Cc1ccc(NC(=O)c2cnc(N3CCCCC3)c3ccccc23)cc1F`, the Potency is reported as inconclusive: 28.2 µM [inhibitor, partial curve, poor fit]. In the case of `CCOC(=O)c1nc2cc(C)c(C)cc2nc1NCc1ccco1`, the Potency is reported as inconclusive: 17.8 µM [inhibitor, single point]. In the case of `CCc1ccccc1Nc1nn2c(=O)c3ccc(C(=O)NCCc4ccccc4)cc3nc2s1`, the Potency is reported as inconclusive: 35.5 µM [inhibitor, partial curve, poor fit]. In the case of `CCC[N+](CCC)(CC[O-])Cc1ccccc1`, the Potency is reported as “inactive”. `CC(NC(=O)C1CCCCC1)c1cccc(Br)c1` (configuration not stated) was tested, and the Potency was “inactive”. With `CC(=O)N1CCC2(C1)N=C(c1ccccn1)C(=O)N2` (configuration not stated) the Potency was inconclusive: 31.6 µM [inhibitor, partial curve, poor fit]. With `CC(=O)Oc1cccc(C(=O)Nc2ccc3c(c2)C(=O)N(CC2CCCO2)C3=O)c1` (configuration not stated) the Potency was inconclusive: 14.1 µM [inhibitor, partial curve, poor fit]. `CC(C)c1noc(-c2cccn3c(CNC(=O)C4CCCCC4)nnc23)n1` was tested, and the Potency was inconclusive: 20 µM [inhibitor, partial curve, poor fit]. `CCCc1noc(-c2ccn3c(CNC(=O)c4ccc(CC)cc4)nnc3c2)n1` was tested, and the Potency was active: 25.1 µM. With `COCc1nnc2n1CCC(NC(=O)c1ccc3cc[nH]c3c1)CC2` (configuration not stated) the Potency was active: 28.2 µM. With `CC(=O)c1ccc(NC(=O)c2cccc(NC(=O)N3CCSc4ncccc43)c2)cc1` the Potency was inconclusive: 35.5 µM [inhibitor, partial curve, poor fit]. For `CN1c2cc(C(=O)Nc3cccc(F)c3)ccc2C(=O)N2CCCCC21` (configuration not stated), the Potency was inconclusive: 31.6 µM [inhibitor, partial curve, poor fit]. With `Cc1nc(-c2ccc(F)cc2)sc1CCNC(=O)c1ccccc1` the Potency was inconclusive: 39.8 µM [inhibitor, single point]. For `O=C(Nc1ncn(Cc2c(F)cccc2Cl)n1)c1ccn(COc2ccc(Cl)cc2)n1`, the Potency was “inactive”. With `CN(Cc1ccccn1)Cc1cccn1C` the Potency was inconclusive: 44.7 µM [inhibitor, partial curve, poor fit]. For `Cn1nc(N2CCC(NC(=O)c3ncccn3)CC2)ccc1=O`, the Potency was inconclusive: 22.4 µM [inhibitor, partial curve, poor fit]. In the case of `CCN1CCOC(=O)C1CC(=O)Nc1ccccc1C(F)(F)F` (configuration not stated), the Potency is reported as inconclusive: 2.51 µM [inhibitor, full curve, poor fit]. For `Cc1cccc(NC(=O)C2CCC(CNS(=O)(=O)c3ccc4c(c3)CCCC(=O)N4)CC2)c1C` (configuration not stated), the Potency was inconclusive: 28.2 µM [inhibitor, single point]. In the case of `O=C(Nc1nnc(C2CC2)s1)c1cc(-c2ccco2)nc2ccccc12`, the Potency is reported as inconclusive: 31.6 µM [inhibitor, partial curve, poor fit]. `COc1ccc(/C=N/NC(=O)c2cccs2)c2ccccc12` was tested, and the Potency was inconclusive: 28.2 µM [inhibitor, partial curve, poor fit]. With `Cc1cccc(C(=O)N2CCC3(CC2)N=C(c2cccc(Br)c2)NO3)c1` the Potency was inconclusive: 22.4 µM [inhibitor, partial curve, poor fit]. For `O=c1c2c(CO)c(-c3ccccc3)nn2ccn1Cc1ccccc1Cl`, the Potency was inconclusive: 15.8 µM [inhibitor, single point]. In the case of `Cc1ccc(-c2nc(CNC(=O)C3(N)CCC3)[nH]c2-c2ccccn2)cc1`, the Potency is reported as inconclusive: 20 µM [inhibitor, single point]. `CC(C)C1CCC(C)C(C2(C#N)C(N)=C(C=O)CC2(C#N)C#N)C1=O` (configuration not stated) was tested, and the Potency was inconclusive: 22.4 µM [inhibitor, partial curve, poor fit].
Also: nearly all actives have a fitted effect of over 70% in size.
Potency is read from the fitted curve at half-maximal effect; tags tell the direction and shape of the fitted curve.
